# Experimental data as given in the supplement of paper PMC7125110.
# ± gives the standard error. Variants at the background level are over-represented here.
# B1: glmS ribozyme (parent)
# chain: AUAAAAGCGCCAGAACUACAGAAAUGUAGUUGACGAGGAGGAGGUUUAUCGAAUUUUCGGCGGAUGCCUCCAAA
# Variants of: B1
# Assay: self-cleavage kobs at 2500 uM GlcN6P; higher = faster cleavage; RNA array
# Settings: with glucosamine-6-phosphate
# Summary of the method: (§1)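 Weighted Michaelis–Menten fits across concentrations supplied kcat and KM, based on kobs from one- or two-exponential decay fits to normalised per-tile medians. The data came from barcoded ribozyme variants transcribed in situ by E. coli RNA polymerase on sequenced MiSeq chips and tracked at 37 °C by a hybridised Cy3 probe. Glucosamine-6-phosphate (40 μM to 10 mM) in HEPES/KCl/Mg(OAc)2 buffer was flowed in.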
row,Variant,self-cleavage kobs at 2500 uM GlcN6P [s⁻¹]
1,A33U G51C A53C,< 1e-05
2,G32C G41A G44U C50G U69C,< 1e-05
3,G37A G41C U47G A48G,< 1e-05
4,U56C A64U C70G,< 1e-05
5,A48C C58G,< 1e-05
6,G41C C50A U69G C70U,< 1e-05
7,U46G U54A C61G,< 1e-05
8,A42G U45C U57G,< 1e-05
9,A52C A53U U57A,< 1e-05
10,A36C A64C C71G,< 1e-05
11,A33U G35C A42U C50U C68A,< 1e-05
12,G38C G41U U46G G60U C61U U69A,< 1e-05
13,G32U A52G,3.86e-05 ± 7.8e-06
14,A42G A52G C68A,< 1e-05
15,G32C G38A C50U,< 1e-05
16,G32U G38A G43U A53G,< 1e-05
17,A42G G51C G60C,< 1e-05
18,G35U G44A C50A U56C G59C G60C G66C,< 1e-05
19,G44U C58A G63U C71A,< 1e-05
20,G37C G40A G44C,< 1e-05

row,Variant,self-cleavage kobs at 2500 uM GlcN6P [s⁻¹]
1,G35C G60A G63C A64G,< 1e-05
2,U45G G60A C67G C68U,< 1e-05
3,A33G G35C G37A,< 1e-05
4,C34A U57C G60C,< 1e-05
5,A42C G43A A52C C58G,< 1e-05
6,G38U C50U,< 1e-05
7,G32U A48U G51C,< 1e-05
8,U54A G63A C70U,< 1e-05
9,C34U G40A U57A,< 1e-05
10,A36U G63A,< 1e-05
11,G37C G38C A42U,< 1e-05
12,G32C U47C G51U,< 1e-05
13,G43C G51C G59U,< 1e-05
14,A33C G41A A52U C68U,< 1e-05
15,A39U G60A U65G,< 1e-05
16,C34U A36G A53C A64U C70G,< 1e-05
17,G38C U46A C50G,< 1e-05
18,U47A A53G C70A,0.000177 ± 4e-05
19,G43A A52C G66C U69G,< 1e-05

# Variants of: B1
# Assay: self-cleavage kobs at 10000 uM GlcN6P; higher = faster cleavage; RNA array
# Settings: with glucosamine-6-phosphate
# Summary of the method: as §1
row,Variant,self-cleavage kobs at 10000 uM GlcN6P [s⁻¹]
1,U56C A64U C70G,< 1e-05
2,A48C C58G,< 1e-05
3,G32U A52G,6.6e-05 ± 5.2e-06
4,G32C G38A C50U,< 1e-05
5,A39U G60A U65G,< 1e-05
